Measured values from paper PMC4336329 (PLoS ONE, 2015).
The whole screen tested about 310,000 compounds, of which about 14,000 (4.5%) showed an effect of 50% or more. Effects have a minus sign here. The list shows a part of the results.

Each molecule was assayed against human ether-à-go-go-related gene (hERG) potassium channel (human, UniProt Q12809) (assay: primary screen, population patch clamp on CHO cells stably expressing hERG).
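Further: peak tail current of the secondary pulse compared with the same well before compound.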

Chain of human ether-à-go-go-related gene (hERG) potassium channel (Q12809 whole entry, looked up): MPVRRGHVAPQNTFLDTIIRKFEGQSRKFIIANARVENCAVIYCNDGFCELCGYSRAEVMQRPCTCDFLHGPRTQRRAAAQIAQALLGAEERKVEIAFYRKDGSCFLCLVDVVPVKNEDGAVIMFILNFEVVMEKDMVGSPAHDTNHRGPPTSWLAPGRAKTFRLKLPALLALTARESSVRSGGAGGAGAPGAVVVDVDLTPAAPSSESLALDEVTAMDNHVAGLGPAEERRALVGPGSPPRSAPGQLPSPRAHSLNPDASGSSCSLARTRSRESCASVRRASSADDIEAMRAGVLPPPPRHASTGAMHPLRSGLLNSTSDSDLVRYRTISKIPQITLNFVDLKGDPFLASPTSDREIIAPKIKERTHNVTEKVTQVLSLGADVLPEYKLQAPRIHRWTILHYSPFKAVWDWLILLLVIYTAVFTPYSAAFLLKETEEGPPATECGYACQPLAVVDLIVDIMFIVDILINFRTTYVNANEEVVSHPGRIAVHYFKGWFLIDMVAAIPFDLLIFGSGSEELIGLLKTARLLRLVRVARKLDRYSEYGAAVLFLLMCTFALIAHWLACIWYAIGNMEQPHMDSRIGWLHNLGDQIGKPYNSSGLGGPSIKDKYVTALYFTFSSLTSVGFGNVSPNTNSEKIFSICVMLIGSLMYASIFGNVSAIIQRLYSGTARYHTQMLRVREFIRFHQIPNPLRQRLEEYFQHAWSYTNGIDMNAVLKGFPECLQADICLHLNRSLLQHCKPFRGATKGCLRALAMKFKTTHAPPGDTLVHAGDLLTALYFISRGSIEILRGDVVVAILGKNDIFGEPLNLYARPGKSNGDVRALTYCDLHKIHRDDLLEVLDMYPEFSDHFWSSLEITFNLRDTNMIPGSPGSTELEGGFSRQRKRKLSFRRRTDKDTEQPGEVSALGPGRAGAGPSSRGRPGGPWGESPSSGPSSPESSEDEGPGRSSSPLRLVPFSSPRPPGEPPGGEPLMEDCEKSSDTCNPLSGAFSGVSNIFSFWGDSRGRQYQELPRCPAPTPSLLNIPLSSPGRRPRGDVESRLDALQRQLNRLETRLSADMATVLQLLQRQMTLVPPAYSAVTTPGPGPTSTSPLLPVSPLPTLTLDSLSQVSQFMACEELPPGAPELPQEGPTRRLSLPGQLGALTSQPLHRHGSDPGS

Structure (SMILES)	hERG current change (%, negative = inhibition) at 10uM [%]
Cc1noc2ncnc(Sc3ccc(Br)cc3)c12	-50.8
CCn1c(C)cc(=O)cc1-c1ccc(Cl)cc1	10.8
CN(C(=O)NC(=O)C1=C(N2CCOCC2)/C(=C/c2ccccc2)CC1)S(C)(=O)=O	-1.97
CCOc1ccc(C2C(C#N)=C(N)Oc3cc(O)ccc32)cc1OCC (centres unmarked)	-5.59
O=C(Nc1nccs1)c1ccc2nccnc2c1	12.6
CN1C(=O)c2ccc(C(=O)Nc3nccs3)cc2C1=O	-20.7
Cc1ccc(SCc2cc(=O)[nH]c(N3CCN(Cc4ccccc4)CC3)n2)cc1	5.84
COCCNC(=O)c1c(NC(=O)c2ccco2)n(Cc2ccccc2)c2nc3ccccc3nc12	-16.9
COc1cc2sc3ccc(C#CC4(O)CCCCC4)cc3c(=O)c2cc1OC	12.3
O=C1NC(c2ccc(O)cc2)Nc2ccccc21 (centres unmarked)	0.853
O=C(CN(c1ccc(F)cc1)S(=O)(=O)c1ccccc1)NC1CC2CCC1C2 (centres unmarked)	19.5
Cc1nnc(SCc2nc3ccccc3nc2C)s1	7.14
Cc1ccc(-c2nnn(CC(=O)N(CCO)C(C(=O)NC3CCCC3)c3ccc(F)cc3)n2)o1 (centres unmarked)	-1.1
Cc1ccc(NC(=S)NC2CC3CCCC(C2)N3Cc2ccco2)cc1 (centres unmarked)	-52.8
COc1cc(CNCc2cccs2)ccc1OCC(N)=O.Cl	-3.77
O=C(O)COc1ccc(Br)cc1CP(=O)(c1ccccc1)c1ccccc1	-0.404
COc1ccc(-c2cc(C(=O)OC3CCOC3=O)c3ccccc3n2)cc1 (centres unmarked)	7.24
O=C(Nc1nccs1)C1CCN(S(=O)(=O)c2ccc3c(c2)OCCCO3)CC1	-5.57
COc1nc(N(c2ccccc2)c2ccccc2)nc(-n2ccnc2)n1	-44.9
COc1ccc(C(=O)NC(=S)N2CCOCC2)cc1[N+](=O)[O-]	-3.56
Cn1nc(C(=O)OCC(=O)NCCc2ccccc2)c2ccccc2c1=O	2.9
COc1ccc(NC(=O)NNc2cc(N3CCOCC3)nc(N3CCOCC3)n2)cc1	9.54
Cc1c(Cl)cccc1NC(=O)CCS(=O)(=O)c1cccc2nonc12	12.8

Structure (SMILES)	hERG current change (%, negative = inhibition) at 10uM [%]
O=C(CN1CCc2ccccc2C1)Nc1cc(S(=O)(=O)N2CCOCC2)ccc1N1CCCC1	0.983
CCn1cc(S(=O)(=O)Nc2cccnc2)cn1	13.5
CC(=O)Oc1c(-c2ccco2)oc2ccccc2c1=O	-3.95
Cc1cccc(NC(=S)N2CCN(c3cc(C)ccc3C)CC2)c1	17.1
O=C(CN1C(=O)c2ccccc2C1=O)Nc1cccnc1	11.8
CC(C)(C)c1ccc(O)c(N=Cc2c(O)ccc3ccccc23)c1	5.91
CS(=O)(=O)N(CC(=O)Nc1ccc2c(c1)OCCO2)Cc1ccccc1	13
COc1ccccc1N(C)S(=O)(=O)c1ccc(Cl)c(C(=O)NC2=NCCS2)c1	31.6
Cn1cccc1C(=O)N1CCc2ccccc2C1	9.85
CCCCOc1ccc(C2/C(=C(\O)c3ccc4c(c3)OCCO4)C(=O)C(=O)N2CCCN2CCOCC2)cc1 (centres unmarked)	24.5
COc1cc(NC(=O)c2cc([N+](=O)[O-])ccc2NC(=O)CNCc2ccccn2)cc(OC)c1	3.3
O=C(COC(=O)c1cnccn1)c1ccc2ccccc2c1	2.53
CCOCC(=O)Nc1ccc2c(c1)OCCO2	19.6
CC(=O)N1CCc2cc(C(=O)CN3CCN(C(=O)c4ccco4)CC3)ccc21	6.01
O=C(Cn1c(NCCO)nc2ccccc21)NCCc1ccc(F)cc1	10.6
Cc1ccc(C(C)C)c(OCc2ccc(C(=O)N/N=C/c3ccc(O)c(O)c3)cc2)c1	10.5
Cc1cnc(NC(=O)c2ccc(Cl)nc2)s1	13.4
CC(C)OCCCNC(=O)c1ccc2c(=O)n(Cc3ccc4c(c3)OCO4)c(=S)[nH]c2c1	21.3
CCS(=O)(=O)N1CCC(C(=O)NCc2ccco2)CC1	3.42
CC(C)C1Cc2c(sc3[nH]c(=S)n(Cc4ccccc4)c(=O)c23)CO1 (centres unmarked)	17.6
COc1ccc2c(CC(=O)NCC3CCC(C(=O)O)CC3)cc(=O)oc2c1 (centres unmarked)	6.04
O=C(O)CCn1cc(C=C2C(=O)NC(=S)NC2=O)c(-c2cccc(Br)c2)n1	34.4
CSc1ccccc1OCc1cc(C(=O)N(C)Cc2ccc(C)o2)no1	-11.9

Structure (SMILES)	hERG current change (%, negative = inhibition) at 10uM [%]
CCc1cc(=O)oc2cc(OCC(=O)OC)c(Cl)cc12	-20.5
CN(C)c1ccc(C(=O)Nc2cc(C(F)(F)F)ccc2-n2cncn2)cc1	-4.97
CC(C)n1ncc2c(C(=O)N3CCN(Cc4ccc(Cl)s4)CC3)cc(C3CC3)nc21	-13.7
CC(C)(C)NS(=O)(=O)c1ccc(CCC(=O)Nc2ccc3c(c2)OCO3)cc1	1.25
CCOC(=O)c1sc(=S)n(C)c1NC(=O)c1ccccc1	19.6
Cc1cccc(NC(=S)NC2CCCCCC2)c1C	14.7
COc1ccc2c(=O)c3c(=O)n(CCc4ccccc4)c(C(C)C)nc3oc2c1	5.79
COc1ccc(NC(=O)c2ccc3c(c2)N(C)CCS3)cc1	2.65
CC(CN1CCOCC1)OC(=O)c1ccc(C(C)(C)C)cc1.Cl (centres unmarked)	4.47
O=C(Nc1ccccc1N1CCCC1)c1cc2ccccc2o1	6.18
O=C(CN1C(=O)c2ccccc2S1(=O)=O)c1cccc(Br)c1	12.5
O=C(NCC(F)(F)F)c1nn(Cc2ccccc2)c(=O)c2ccccc12	5.37
CNc1ccccc1C(C)(C)c1cn(-c2ccc([N+](=O)[O-])cc2)nn1	3.21
COc1ccc(NC(=O)c2nc3nccc(C)n3n2)cn1	6.23
Br.Cc1ccc(C)c(C(=O)Cn2c(NCCO)nc3ccccc32)c1	6.12
O=C(c1cn[nH]c1)c1cc(F)ccc1O	-2.62
CN(C)Cc1c(C(=O)N/N=C/CCc2ccccc2)nnn1-c1nonc1N	-31.1
Cc1cccc(Nc2nc(C)cc(C)n2)c1.Cl	18.2
COc1cc(NC(=S)NC(=O)c2c(OC)cccc2OC)ccc1NC(=O)c1cccs1	-3.22
CCOc1cc(/C=C/C(=O)OCC(=O)NC2CCS(=O)(=O)C2)ccc1OCc1ccccc1 (centres unmarked)	34.8
CCOc1ccc(/C=N/NC(=O)c2cc(-c3cccn3C)n[nH]2)cc1	5.27
O=C1CC[C@H](O)CCN1CCSc1ccc(Br)cc1	-16.2
O=C1OC(Nc2ccc3ncccc3c2)c2ccccc21 (centres unmarked)	21.8

Structure (SMILES)	hERG current change (%, negative = inhibition) at 10uM [%]
Cn1c(SCC(=O)Nc2cccc(O)c2)nnc1-c1ccc(S(=O)(=O)N2CCOCC2)cc1	9.99
CCC(C)(C)NC(=O)CN(C(=O)CCC(=O)Nc1cc(C)ccn1)c1ccc2c(c1)OCO2	-10.2
CC(C)(C)NC(=O)CN(C(=O)CS(=O)CC(=O)Nc1ccc(F)cc1)c1cccc(F)c1 (centres unmarked)	1.86
O=C(Cn1cnc2c(nnn2-c2cccc(F)c2)c1=O)Nc1ccc2c(c1)OCCO2	13.4
CCc1nnc(NS(=O)(=O)c2ccc(NC(=O)c3cc4ccccc4oc3=O)cc2)s1	9.31
O=[N+]([O-])c1ccc(Oc2ncccn2)cc1	4.28
Cc1ccc(S(=O)(=O)NC(Cc2cnc[nH]2)C(=O)O)cc1 (centres unmarked)	17.8
Cc1ccc(C(=O)COC(=O)CNC(=O)CNC(=O)c2ccc(C)cc2)cc1	-13.1
COc1cccc(NC(=O)CSc2ccc3nnc(CCNC(=O)c4ccccc4)n3n2)c1	-19.4
CN(C)CCNC(=O)NC(=O)c1ccc(Cl)cc1	-14.7
CC(=O)NC(c1ccc(C(C)C)cc1)c1ccc2cccnc2c1O (centres unmarked)	18.3
O=C1c2ccccc2S(=O)(=O)N1CCOc1ccccc1	-7.6
Cc1ccsc1/C=N/NC(=O)c1c[nH]c2ccccc12	13.6
CCn1c(SCC(=O)N(Cc2ccccc2)C2CCS(=O)(=O)C2)nc2ccccc2c1=O (centres unmarked)	-61
O=C(/C=C\c1ccccc1)NCC(=O)N/N=C/c1ccc(O)cc1O	9.48
C=CCc1ccccc1OCC(O)CNC1CCCC1.Cl (centres unmarked)	9.54
CCn1cnc2c(Nc3cc(F)cc(F)c3)nc(C#N)nc21	23.2
CCC(=O)Nc1cccc(-c2nc3ncccc3o2)c1C	15.6
O=C(NCc1ccc2c(c1)OCO2)c1ccc(Cl)s1	5.61
CSc1ccccc1NC(=O)c1cc(C)on1	-3.32
